The list shows a part of the results. The full chains were built here from the parent and the listed change. Values near 0.05 are background.
B1: TEV protease; numbered along this chain (parent)
chain: MGESLFKGPRDYNPISSSICHLTNESDGHTTSLYGIGFGPFIITNKHLFRRNNGTLVVQSLHGVFKVKDTTTLQQHLVDGRDMIIIRMPKDFPPFPQKLKFREPQREERICLVTTNFQTKSMSSMVSDTSCTFPSGDGIFWKHWIQTKDGQCGSPLVSTRDGFIVGIHSASNFTNTNNYFTSVPKNFMELLTNQEAQQWVSGWRLNADSVLWGGHKVFMVKPEEPFQPVKEATQL

Variants of: B1
Assay: raw area under fraction-flipped curve 0-4 h after induction (AUC4h, not background-subtracted), DNA-recorder readout of cleavage of the substrate (dimensionless); higher = more cleavage of the substrate by the protease variant
Details: temperature: 34 °C; time window: 0-4 h after rhamnose induction
Protocol: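 In vivo DNA recorder in E. coli TOP10(DE3) ΔrhaA at 34 °C. Each TEVp single-site mutant (parent TEVp 0) is paired with a single-site variant of the 7-mer TEVs (canonical ENLYFQ|S). The substrate sits between flexible linkers in a Bxb1-sfGFP-TEVs-SsrA fusion, so cleavage stabilises Bxb1 and speeds flipping of a recombination array, read by NGS. The value is the raw area under the fraction-flipped curve over 0-4 h after rhamnose induction (AUC4h), with ≥20 reads per time point. It is not background-subtracted; inactive controls average about 0.047.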
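Note: Bxb1 expression induced with 0.2% (w/v) L-rhamnose at OD600 near 0.5, cultures sampled hourly, flipped fraction per protease–substrate barcode pair counted by paired-end Illumina sequencing.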

Variant	area with substrate ENLYFAS	area with substrate ENLYFES	area with substrate ENLYFFS	area with substrate ENLYFIS	area with substrate ENLYFMS	area with substrate ENLYFPS	area with substrate ENLYFRS	area with substrate ENLYFSS	area with substrate ENLYFTS	area with substrate ENLYFVS	area with substrate ENLYFWS	area with substrate ENLYFCS	area with substrate ENLYFHS	area with substrate ENLYFKS	area with substrate ENLYFLS	area with substrate ENLYFNS	area with substrate ENLYFYS	area with substrate ENLYFGS	area with substrate ENLYFDS
MGESLFKGPRDYNPISSSICHLTNESDGETTSLYGIGFGPFIITNKHLFRRNNGTLVVQSLHGVFKVKDTTTLQQHLVDGRDMIIIRMPKDFPPFPQKLKFREPQREERICLVTTNFQTKSMSSMVSDTSCTFPSGDGIFWKHWIQTKDGQCGSPLVSTRDGFIVGIHSASNFTNTNNYFTSVPKNFMELLTNQEAQQWVSGWRLNADSVLWGGHKVFMVKPEEPFQPVKEATQL [H29E]	0.0565	0.0702	0.0647	0.0559	0.0679	0.0605	0.06	0.0571	0.0602	0.0452	0.06	–	–	–	–	–	–	–	–
MGESLFKGPRDYNPISSSICHLTNESDGLTTSLYGIGFGPFIITNKHLFRRNNGTLVVQSLHGVFKVKDTTTLQQHLVDGRDMIIIRMPKDFPPFPQKLKFREPQREERICLVTTNFQTKSMSSMVSDTSCTFPSGDGIFWKHWIQTKDGQCGSPLVSTRDGFIVGIHSASNFTNTNNYFTSVPKNFMELLTNQEAQQWVSGWRLNADSVLWGGHKVFMVKPEEPFQPVKEATQL [H29L]	0.058	0.078	0.07	0.0624	0.0752	0.0505	–	0.0584	0.0571	0.0679	0.0716	0.0507	0.0652	0.0676	0.0643	0.0715	0.0553	–	–
MGESLFKGPRDYNPISSSICHLTNESDGRTTSLYGIGFGPFIITNKHLFRRNNGTLVVQSLHGVFKVKDTTTLQQHLVDGRDMIIIRMPKDFPPFPQKLKFREPQREERICLVTTNFQTKSMSSMVSDTSCTFPSGDGIFWKHWIQTKDGQCGSPLVSTRDGFIVGIHSASNFTNTNNYFTSVPKNFMELLTNQEAQQWVSGWRLNADSVLWGGHKVFMVKPEEPFQPVKEATQL [H29R]	0.0452	–	0.0716	0.0657	0.059	0.0681	0.0652	0.0631	0.063	–	0.0396	–	0.0608	0.0457	–	0.0668	–	–	–
MGESLFKGPRDYNPISSSICHLTNESDGHTFSLYGIGFGPFIITNKHLFRRNNGTLVVQSLHGVFKVKDTTTLQQHLVDGRDMIIIRMPKDFPPFPQKLKFREPQREERICLVTTNFQTKSMSSMVSDTSCTFPSGDGIFWKHWIQTKDGQCGSPLVSTRDGFIVGIHSASNFTNTNNYFTSVPKNFMELLTNQEAQQWVSGWRLNADSVLWGGHKVFMVKPEEPFQPVKEATQL [T31F]	0.0587	–	0.0617	0.051	0.07	0.0615	–	0.0529	0.0806	0.0214	0.0666	0.0523	0.0773	–	–	0.0649	0.0563	0.071	–
MGESLFKGPRDYNPISSSICHLTNESDGHTWSLYGIGFGPFIITNKHLFRRNNGTLVVQSLHGVFKVKDTTTLQQHLVDGRDMIIIRMPKDFPPFPQKLKFREPQREERICLVTTNFQTKSMSSMVSDTSCTFPSGDGIFWKHWIQTKDGQCGSPLVSTRDGFIVGIHSASNFTNTNNYFTSVPKNFMELLTNQEAQQWVSGWRLNADSVLWGGHKVFMVKPEEPFQPVKEATQL [T31W]	0.0316	0.0574	0.0776	0.0364	0.0664	0.0508	0.0688	0.0654	0.0617	0.0582	0.0475	–	–	0.0827	0.0512	0.0491	0.0548	0.0582	–
MGESLFKGPRDYNPISSSICHLTNESDGHTTHLYGIGFGPFIITNKHLFRRNNGTLVVQSLHGVFKVKDTTTLQQHLVDGRDMIIIRMPKDFPPFPQKLKFREPQREERICLVTTNFQTKSMSSMVSDTSCTFPSGDGIFWKHWIQTKDGQCGSPLVSTRDGFIVGIHSASNFTNTNNYFTSVPKNFMELLTNQEAQQWVSGWRLNADSVLWGGHKVFMVKPEEPFQPVKEATQL [S32H]	0.0528	0.0653	0.0656	0.0588	0.065	0.0581	0.0693	0.0565	0.0569	0.055	0.0541	0.0611	0.065	0.0772	0.0479	0.0619	0.0534	0.0578	0.0536
MGESLFKGPRDYNPISSSICHLTNESDGHTTSPYGIGFGPFIITNKHLFRRNNGTLVVQSLHGVFKVKDTTTLQQHLVDGRDMIIIRMPKDFPPFPQKLKFREPQREERICLVTTNFQTKSMSSMVSDTSCTFPSGDGIFWKHWIQTKDGQCGSPLVSTRDGFIVGIHSASNFTNTNNYFTSVPKNFMELLTNQEAQQWVSGWRLNADSVLWGGHKVFMVKPEEPFQPVKEATQL [L33P]	0.0449	0.0486	0.0571	0.0461	–	0.0768	–	–	0.0393	0.0546	0.0455	–	0.048	0.0513	0.0484	–	0.057	0.051	0.0463
MGESLFKGPRDYNPISSSICHLTNESDGHTTSLYGAGFGPFIITNKHLFRRNNGTLVVQSLHGVFKVKDTTTLQQHLVDGRDMIIIRMPKDFPPFPQKLKFREPQREERICLVTTNFQTKSMSSMVSDTSCTFPSGDGIFWKHWIQTKDGQCGSPLVSTRDGFIVGIHSASNFTNTNNYFTSVPKNFMELLTNQEAQQWVSGWRLNADSVLWGGHKVFMVKPEEPFQPVKEATQL [I36A]	0.055	–	0.0624	0.0491	0.0509	0.0512	0.056	–	0.0478	–	0.0559	0.0246	0.0397	0.0513	0.0606	0.0463	0.0614	–	–
MGESLFKGPRDYNPISSSICHLTNESDGHTTSLYGEGFGPFIITNKHLFRRNNGTLVVQSLHGVFKVKDTTTLQQHLVDGRDMIIIRMPKDFPPFPQKLKFREPQREERICLVTTNFQTKSMSSMVSDTSCTFPSGDGIFWKHWIQTKDGQCGSPLVSTRDGFIVGIHSASNFTNTNNYFTSVPKNFMELLTNQEAQQWVSGWRLNADSVLWGGHKVFMVKPEEPFQPVKEATQL [I36E]	0.0589	0.0457	0.0523	0.0517	0.0437	0.045	0.0516	–	0.0328	0.0194	0.0452	0.0402	–	0.0497	–	0.0464	0.0339	–	0.0386
MGESLFKGPRDYNPISSSICHLTNESDGHTTSLYGRGFGPFIITNKHLFRRNNGTLVVQSLHGVFKVKDTTTLQQHLVDGRDMIIIRMPKDFPPFPQKLKFREPQREERICLVTTNFQTKSMSSMVSDTSCTFPSGDGIFWKHWIQTKDGQCGSPLVSTRDGFIVGIHSASNFTNTNNYFTSVPKNFMELLTNQEAQQWVSGWRLNADSVLWGGHKVFMVKPEEPFQPVKEATQL [I36R]	0.0477	0.042	0.0534	0.0497	0.0515	0.0409	0.0637	0.044	0.0447	0.0414	0.0395	0.05	0.0594	0.0301	–	0.0397	0.0368	–	0.0447
MGESLFKGPRDYNPISSSICHLTNESDGHTTSLYGVGFGPFIITNKHLFRRNNGTLVVQSLHGVFKVKDTTTLQQHLVDGRDMIIIRMPKDFPPFPQKLKFREPQREERICLVTTNFQTKSMSSMVSDTSCTFPSGDGIFWKHWIQTKDGQCGSPLVSTRDGFIVGIHSASNFTNTNNYFTSVPKNFMELLTNQEAQQWVSGWRLNADSVLWGGHKVFMVKPEEPFQPVKEATQL [I36V]	0.0583	0.0528	0.0637	0.044	0.0663	0.0634	–	0.0714	0.0743	0.0525	–	0.0546	0.0512	0.057	–	0.0595	0.0552	–	–
MGESLFKGPRDYNPISSSICHLTNESDGHTTSLYGIPFGPFIITNKHLFRRNNGTLVVQSLHGVFKVKDTTTLQQHLVDGRDMIIIRMPKDFPPFPQKLKFREPQREERICLVTTNFQTKSMSSMVSDTSCTFPSGDGIFWKHWIQTKDGQCGSPLVSTRDGFIVGIHSASNFTNTNNYFTSVPKNFMELLTNQEAQQWVSGWRLNADSVLWGGHKVFMVKPEEPFQPVKEATQL [G37P]	0.0512	0.0523	0.0188	0.0434	0.0429	0.0446	–	0.0489	–	–	0.0452	–	–	0.0387	–	–	–	0.03	–
MGESLFKGPRDYNPISSSICHLTNESDGHTTSLYGIGPGPFIITNKHLFRRNNGTLVVQSLHGVFKVKDTTTLQQHLVDGRDMIIIRMPKDFPPFPQKLKFREPQREERICLVTTNFQTKSMSSMVSDTSCTFPSGDGIFWKHWIQTKDGQCGSPLVSTRDGFIVGIHSASNFTNTNNYFTSVPKNFMELLTNQEAQQWVSGWRLNADSVLWGGHKVFMVKPEEPFQPVKEATQL [F38P]	0.0462	0.0479	0.06	0.0402	0.0339	0.0434	0.0375	0.0423	0.0442	–	–	0.0428	0.0593	–	–	0.048	0.0331	0.0561	0.0307
MGESLFKGPRDYNPISSSICHLTNESDGHTTSLYGIGFQPFIITNKHLFRRNNGTLVVQSLHGVFKVKDTTTLQQHLVDGRDMIIIRMPKDFPPFPQKLKFREPQREERICLVTTNFQTKSMSSMVSDTSCTFPSGDGIFWKHWIQTKDGQCGSPLVSTRDGFIVGIHSASNFTNTNNYFTSVPKNFMELLTNQEAQQWVSGWRLNADSVLWGGHKVFMVKPEEPFQPVKEATQL [G39Q]	0.0443	0.0513	0.0341	0.0397	0.0292	0.0439	–	–	–	0.0371	0.0482	0.0374	0.0534	–	0.0519	0.0445	0.0348	0.0499	–
MGESLFKGPRDYNPISSSICHLTNESDGHTTSLYGIGFWPFIITNKHLFRRNNGTLVVQSLHGVFKVKDTTTLQQHLVDGRDMIIIRMPKDFPPFPQKLKFREPQREERICLVTTNFQTKSMSSMVSDTSCTFPSGDGIFWKHWIQTKDGQCGSPLVSTRDGFIVGIHSASNFTNTNNYFTSVPKNFMELLTNQEAQQWVSGWRLNADSVLWGGHKVFMVKPEEPFQPVKEATQL [G39W]	0.0419	0.0467	0.0522	0.0433	0.0563	0.0452	0.065	0.052	0.0457	0.0461	–	0.0423	0.0399	–	0.0419	0.0484	0.0494	0.0396	0.0474
MGESLFKGPRDYNPISSSICHLTNESDGHTTSLYGIGFGPFCITNKHLFRRNNGTLVVQSLHGVFKVKDTTTLQQHLVDGRDMIIIRMPKDFPPFPQKLKFREPQREERICLVTTNFQTKSMSSMVSDTSCTFPSGDGIFWKHWIQTKDGQCGSPLVSTRDGFIVGIHSASNFTNTNNYFTSVPKNFMELLTNQEAQQWVSGWRLNADSVLWGGHKVFMVKPEEPFQPVKEATQL [I42C]	0.0614	0.0623	0.0621	0.0515	0.0575	0.063	–	–	0.0625	0.0651	0.0569	0.0563	0.0607	0.0695	0.0525	0.0532	0.0508	0.0512	0.0627
MGESLFKGPRDYNPISSSICHLTNESDGHTTSLYGIGFGPFYITNKHLFRRNNGTLVVQSLHGVFKVKDTTTLQQHLVDGRDMIIIRMPKDFPPFPQKLKFREPQREERICLVTTNFQTKSMSSMVSDTSCTFPSGDGIFWKHWIQTKDGQCGSPLVSTRDGFIVGIHSASNFTNTNNYFTSVPKNFMELLTNQEAQQWVSGWRLNADSVLWGGHKVFMVKPEEPFQPVKEATQL [I42Y]	0.0367	0.0584	0.056	0.0484	0.0332	0.0503	0.0461	0.0381	0.0441	–	0.0417	0.054	0.0455	0.0431	0.0466	0.0491	0.0399	0.0381	–

— the supplement of paper PMC12217912
